Test results from PubChem BioAssay AID1508623 (National Center for Advancing Translational Sciences (NCATS), 2021).
Hit rate of the full screen: of about 48,000 compounds, about 450 (0.94%) were called active. The shares of active, inactive and inconclusive entries below differ from those in the screen. Calls come from the whole dose curve; as a rule, active = well fitted inhibition curve with a large enough effect; inconclusive = small, poorly fitted or top-dose-only effect; inactive = no such curve, though single readings can be large or run the other way. Where the call is inconclusive, the potency comes from a doubtful curve fit.

Test: Primary qHTS for Identification of Small Molecule Inhibitors of Huntingtin Promoter Activity; note: nearly all actives have a fitted effect of over 50% in size
Conditions: HEK293 HTT promoter firefly luciferase reporter (activity 0% = vehicle and -100% = no light), 24 h; activity change, negative = inhibition: at 57.5 µM (top of the series)
Procedure, shortened: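 HEK293 cells carrying firefly luciferase reporters were seeded at 2,500 per well in Opti-MEM and cultured for 24 h. They were then treated with compounds at up to 57.5 uM final for 24 h at 37 degrees C before Dual-Glo luminescence readout.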
Potency is the fitted concentration of half-maximal effect; tags give direction and shape of the fitted curve.

Row | Compound | Potency | activity change, negative = inhibition
1 | O=C(c1noc2c1CCCCC2)N1CCN(c2cccc(Cl)c2)CC1 | inconclusive: 39.8 µM [inhibitor, single point] | –
2 | CC(=O)Nc1cccc(NC(=O)CSc2nccn2Cc2ccc3c(c2)OCO3)c1 | inconclusive: 31.6 µM [inhibitor, partial curve, poor fit] | –
3 | COCCCNC(=O)c1ccc(Cn2c(SCc3ccc(F)cc3)nc3cccnc32)cc1 | – | inactive: 2.42%
4 | CC(C)CCN(C(=O)Nc1ccc(Cl)c(Cl)c1)C1CCN(C(C)C)CC1 | inconclusive: 28.2 µM [inhibitor, single point] | –
5 | Cc1ccc(CN(Cc2ccco2)C(=O)c2ccccc2Br)o1 | inconclusive: 28.2 µM [inhibitor, single point] | –
6 | Cc1nc(-c2ccc(S(=O)(=O)N3CCN(c4cccc(C(F)(F)F)c4)CC3)cc2)co1 | inconclusive: 39.8 µM [inhibitor, single point] | –
7 | Cc1ccc(Cc2cnc(NC(=O)c3ccc4c(c3)CC(c3ccccc3)OC4=O)s2)cc1 (stereo not drawn) | inconclusive: 1.12 µM [inhibitor, full curve, poor fit] | –
8 | COc1ccc(C(=O)N2CC(=O)Nc3ccc(Br)cc3C2c2ccc(F)cc2)cc1OC (stereo not drawn) | inconclusive: 31.6 µM [inhibitor, partial curve, poor fit] | –
9 | COc1ccc(NC(=O)c2ccc3oc(=O)c(S(=O)(=O)c4ccc(F)cc4)cc3c2)cc1OC | inconclusive: 39.8 µM [inhibitor, single point] | –
10 | Cc1nc(C2CCCCC2)c(-c2ccc(S(N)(=O)=O)c(F)c2)o1 | – | inactive: -27%
11 | CSc1nn(CC(=O)Nc2ccccc2F)c(N)c1S(=O)(=O)c1ccccc1 | inconclusive: 35.5 µM [inhibitor, partial curve, poor fit] | –
12 | COCCCNC(=O)Cn1c(=O)n(-c2cccc(C)c2)c(=O)c2c1c1cc(C)ccc1n2C | – | inactive: -12.4%
13 | COc1ccc(-c2noc(CCCC(=O)Nc3cccc(Cl)c3C)n2)cc1 | inconclusive: 2 µM [inhibitor, partial curve, poor fit] | –
14 | Cc1ccc(CN2CCSc3ccc(C(=O)NCc4ccc(OC(C)C)cc4)cc32)cc1 | inconclusive: 22.4 µM [inhibitor, partial curve, poor fit] | –
15 | COc1cccc(/C=C/c2onc(C)c2S(=O)(=O)N2CCC(C(=O)N3CCCCC3)CC2)c1 | inconclusive: 25.1 µM [inhibitor, partial curve, poor fit] | –
16 | COc1ccc(C2CC(=O)c3c([nH]c(C(=O)OCc4ccccc4)c3C)C2)cc1 (stereo not drawn) | – | inactive: -18.5%
17 | COc1ccc(N(Cc2ccccc2)C(=O)c2nc(S(C)(=O)=O)ncc2Cl)cc1 | inconclusive: 25.1 µM [inhibitor, partial curve, poor fit] | –
18 | CCCSCCCNC(=O)C1CCN(C(=O)c2cnn(-c3ccccc3)c2-n2cccc2)CC1 | inconclusive: 35.5 µM [inhibitor, partial curve, poor fit] | –
19 | COc1cccc(C(=O)Nc2ccc(-n3nncc3-c3ccccc3)cc2)c1OC | – | inactive: -33.6%
20 | COc1ccc(NC(=O)CSc2nc(-c3cccs3)cc(C(F)(F)F)n2)cc1Cl | inconclusive: 31.6 µM [inhibitor, single point] | –

Row | Compound | Potency | activity change, negative = inhibition
21 | CCc1c(C)sc2c1CCN(Cc1cccc(OC)c1)C2c1ccccc1 (stereo not drawn) | inconclusive: 25.1 µM [inhibitor, partial curve, poor fit] | –
22 | CCc1ccc(C(=O)CC2(O)C(=O)N(CCc3ccccc3)c3ccc(Br)cc32)cc1 (stereo not drawn) | inconclusive: 39.8 µM [inhibitor, single point] | –
23 | CCC1=Nc2cc(C(=O)NCCc3ccc(OC)c(OC)c3)ccc2Sc2ccccc21 | inconclusive: 22.4 µM [inhibitor, partial curve] | –
24 | CCc1ccccc1S(=O)(=O)Cc1ccc(C(=O)NCc2ccc(Cl)cc2)o1 | inconclusive: 39.8 µM [inhibitor, single point] | –
25 | COc1ccc(CCC(=O)NCc2ccc3c(c2)CCN3C(=O)c2ccc(Cl)cc2)cc1 | inconclusive: 7.08 µM [inhibitor, single point] | –
26 | Cc1cccc(N2CCN(C(c3ccccc3)c3nnc(-c4ccccc4F)o3)CC2)c1C (stereo not drawn) | inconclusive: 25.1 µM [inhibitor, partial curve, poor fit] | –
27 | Fc1ccc(Nc2nc(SCc3ccccc3Cl)nc3ccccc23)cc1 | inconclusive: 28.2 µM [inhibitor, single point] | –
28 | CCCCCCCCCCCCCC[N+](C)(C)C | inconclusive: 31.6 µM [inhibitor, single point] | –
29 | COc1ccc(CC(=O)NCCS(=O)(=O)N2CCN(c3ccccc3F)CC2)cc1OC | inconclusive: 31.6 µM [inhibitor, single point] | –
30 | CCOc1ccccc1NC(=O)C1CCC(CNS(=O)(=O)c2ccc3c(c2)CCCC(=O)N3)CC1 (stereo not drawn) | inconclusive: 28.2 µM [inhibitor, partial curve, poor fit] | –
31 | COc1ccc(S(=O)(=O)c2c(Nc3c(C)cccc3C)sc(C(=O)c3ccc(F)cc3)c2N)cc1 | inconclusive: 8.91 µM [inhibitor, full curve, poor fit] | –
32 | O=C(CC1N=C2c3ccccc3N=C(SCc3ccc(F)cc3)N2C1=O)NC1CCCCC1 (stereo not drawn) | inconclusive: 39.8 µM [inhibitor, single point] | –
33 | Cc1ccc(CN(Cc2ccco2)C(=O)c2ccc(Cl)cc2Cl)cc1 | inconclusive: 25.1 µM [inhibitor, partial curve, poor fit] | –
34 | CC(C)Oc1ccc(CN2CCc3nc(Nc4ccc5c(c4)OCCO5)ncc3C2)cc1 | inconclusive: 25.1 µM [inhibitor, single point] | –
35 | COc1ccc(OC)c(NC(=O)CSC2=Nc3ccccc3C3=NC(CCC(=O)NCc4ccccc4)C(=O)N23)c1 (stereo not drawn) | – | inactive: -16.1%
36 | O=C(COc1ccc(Cl)cc1)N(Cc1ccco1)Cc1ccco1 | inconclusive: 31.6 µM [inhibitor, single point] | –
37 | O=S(=O)(Nc1cccc(C(F)(F)F)c1)c1ccc(NS(=O)(=O)c2ccc3c(c2)OCCO3)cc1 | inconclusive: 35.5 µM [inhibitor, partial curve, poor fit] | –
38 | Cc1ccc(NC(=O)CSc2nc3ccccc3n2CC(=O)N2CCC(C)CC2)cc1C | inconclusive: 35.5 µM [inhibitor, partial curve, poor fit] | –
39 | Cc1csc2nc(COC(=O)c3cccc(NC(=O)c4cccc(Cl)c4)c3)cc(=O)n12 | inconclusive: 31.6 µM [inhibitor, partial curve, poor fit] | –
40 | CC1=C(C(N)=O)C(c2cccc(O)c2)n2ncnc2N1 (stereo not drawn) | – | inactive: -5.49%

Row | Compound | Potency | activity change, negative = inhibition
41 | COc1ccc(Cl)cc1NC(=O)Cn1c(=O)oc2cc(S(=O)(=O)N3CCCCCC3)ccc21 | inconclusive: 6.31 µM [inhibitor, partial curve] | –
42 | Cc1ccc2sc(N(Cc3cccnc3)C(=O)Cc3ccccc3)nc2c1C | inconclusive: 28.2 µM [inhibitor, single point] | –
43 | CN(C)CCNC(=O)c1ccc(Cn2c(SCc3ccc(F)cc3)nc3cccnc32)cc1 | – | inactive: 60.6%
44 | COc1ccc(NC(=O)CCS(=O)(=O)c2nc(-c3cccs3)cc(C(F)(F)F)n2)cc1 | inconclusive: 39.8 µM [inhibitor, single point] | –
45 | CCn1c(SCc2ccccc2C)nc(=O)c2c(C(=O)OC)cc(C3CC3)nc21 | inconclusive: 39.8 µM [inhibitor, single point] | –
46 | CCN(CC)S(=O)(=O)c1ccc2c(c1)N(CC(=O)N1CCN(c3cccc(Cl)c3)CC1)C(=O)CO2 | inconclusive: 39.8 µM [inhibitor, single point] | –
47 | CC(C)Oc1ccc(CNC(=O)c2ccc(CS(=O)c3cccc(Cl)c3)o2)cc1 (stereo not drawn) | inconclusive: 39.8 µM [inhibitor, single point] | –
48 | Cc1ccc(Cl)cc1Nc1nn2c(=O)c3ccc(C(=O)Nc4ccc(F)cc4)cc3nc2s1 | – | inactive: -1.06%
49 | O=C(NCCc1csc(-c2ccc(C(F)(F)F)cc2)n1)c1ccc(F)c(F)c1 | inconclusive: 31.6 µM [inhibitor, partial curve, poor fit] | –
50 | CCOc1ccc(-c2cc(CCCC(=O)NCCc3ccc(Cl)cc3)no2)cc1 | active: 1.78 µM | –
51 | CCN(c1cccc(C)c1)S(=O)(=O)c1ccc(-n2cccn2)cc1 | inconclusive: 39.8 µM [inhibitor, single point] | –
52 | Cc1ccc(C(=O)N2CCc3cc(CNC(=O)CSc4ccccc4)ccc32)cc1 | inconclusive: 31.6 µM [inhibitor, partial curve, poor fit] | –
53 | CC=C1NC(=O)[C@H]2CSSCCC=C[C@H](CC(=O)N[C@H](C(C)C)C(=O)N2)OC(=O)[C@H](C(C)C)NC1=O | – | inactive: 19.8%
54 | Cc1[nH]n2c(=O)cc(-c3ccc(Cl)cc3)nc2c1-c1ccccc1 | inconclusive: 10 µM [inhibitor, partial curve] | –
55 | COc1ccc(N2CCN(C(CNC(=O)C(=O)NCc3cccnc3)c3cccnc3)CC2)cc1 (stereo not drawn) | inconclusive: 25.1 µM [inhibitor, partial curve, poor fit] | –
56 | Cc1ccc(NC(=O)CSc2nc3c([nH]c4ccccc43)c(=O)n2-c2ccccc2)cc1Cl | inconclusive: 20 µM [inhibitor, partial curve, poor fit] | –
57 | Cc1cccc(N2CCN(C(=O)C3CCN(C(=O)c4cc5sccc5n4C)CC3)CC2)c1C | inconclusive: 22.4 µM [inhibitor, partial curve] | –
58 | CC1Cn2c(C(=O)NCCc3ccc(Cl)cc3)cc3cccc(c32)S1 (stereo not drawn) | inconclusive: 25.1 µM [inhibitor, single point] | –
